Assay results as given in publication PMC4336329 (PLoS ONE, 2015).
The campaign covered roughly 310,000 compounds. About 2,200 (0.71%) showed an effect of 50% or more. Effects have a minus sign here. This is one part of the list.

Target: human ether-à-go-go-related gene (hERG) potassium channel (human, UniProt Q12809)
Assay: primary screen, population patch clamp on CHO cells stably expressing hERG

Sequence of human ether-à-go-go-related gene (hERG) potassium channel (Q12809 whole entry, looked up): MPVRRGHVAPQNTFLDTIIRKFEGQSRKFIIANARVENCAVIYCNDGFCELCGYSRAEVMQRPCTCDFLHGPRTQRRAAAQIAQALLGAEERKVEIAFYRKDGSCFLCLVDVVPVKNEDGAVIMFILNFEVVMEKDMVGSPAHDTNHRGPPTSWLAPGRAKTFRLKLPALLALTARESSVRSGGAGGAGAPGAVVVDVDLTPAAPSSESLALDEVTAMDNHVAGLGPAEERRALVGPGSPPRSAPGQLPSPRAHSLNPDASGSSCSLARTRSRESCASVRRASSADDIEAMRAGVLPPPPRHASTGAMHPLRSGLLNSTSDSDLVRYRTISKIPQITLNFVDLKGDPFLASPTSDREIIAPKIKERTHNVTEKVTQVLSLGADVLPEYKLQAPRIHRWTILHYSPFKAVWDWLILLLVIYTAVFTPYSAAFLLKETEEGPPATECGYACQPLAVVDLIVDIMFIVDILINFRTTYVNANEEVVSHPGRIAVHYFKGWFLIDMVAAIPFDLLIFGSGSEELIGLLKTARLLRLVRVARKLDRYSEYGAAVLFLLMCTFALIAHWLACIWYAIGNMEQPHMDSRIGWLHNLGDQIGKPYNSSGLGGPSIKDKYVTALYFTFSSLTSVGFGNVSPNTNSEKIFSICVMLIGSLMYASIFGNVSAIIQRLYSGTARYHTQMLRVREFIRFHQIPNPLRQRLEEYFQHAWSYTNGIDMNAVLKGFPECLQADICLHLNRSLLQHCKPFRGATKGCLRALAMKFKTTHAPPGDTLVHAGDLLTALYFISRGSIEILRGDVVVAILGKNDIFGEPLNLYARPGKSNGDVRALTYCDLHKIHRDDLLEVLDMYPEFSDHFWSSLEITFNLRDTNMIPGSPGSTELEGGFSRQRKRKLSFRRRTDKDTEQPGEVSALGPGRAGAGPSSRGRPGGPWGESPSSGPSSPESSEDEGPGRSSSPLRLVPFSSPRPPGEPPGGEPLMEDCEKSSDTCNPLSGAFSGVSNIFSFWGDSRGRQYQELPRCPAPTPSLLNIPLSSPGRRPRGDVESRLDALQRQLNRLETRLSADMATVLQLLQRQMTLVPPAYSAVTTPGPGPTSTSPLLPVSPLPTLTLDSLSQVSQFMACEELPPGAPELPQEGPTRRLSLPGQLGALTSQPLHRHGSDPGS

SMILES	hERG current change (%, negative = inhibition) at 1uM [%]
Cc1ccccc1-c1cc(C(=O)NCc2cccs2)n(CC2CC(c3cccnc3)=NO2)n1 (centres unmarked)	-7.94
Cc1cc(Nc2ccc([N+](=O)[O-])cc2)c2ccccc2n1	4.19
Nc1nnc(C2CCCC2)s1	6.32
CC1NC(=O)NC1CCCCCC(=O)Nc1ccc(F)c(Cl)c1 (centres unmarked)	1.45
[Cl-].c1ccc(Cn2c[n+](Cc3ccccc3)c3ccccc32)cc1	1.48
Cc1ccc(NC(=O)c2cccc(Cl)c2)nc1	5.15
Cc1cc(C(=O)CSc2nnnn2-c2ccc(Cl)cc2)c(C)n1CC1CCCO1 (centres unmarked)	8.1
Cc1cccc(C)c1NC(=O)COC(=O)COc1ccc2c(C)cc(=O)oc2c1	4.79
CC1(C)CC(=O)c2cc(C(=O)NCc3ccco3)c(=O)n(-c3ccccc3)c2C1	7.8
CCCN1C2CCCC1CC(NC(=S)NCCCOCC)C2 (centres unmarked)	8.82
Cc1occc1-c1nnc(SCC(=O)Nc2nccs2)n1Cc1ccco1	3.28
Cc1ccc2[nH]c(=O)c(CN(Cc3cccs3)Cc3nnnn3Cc3ccccc3)cc2c1	3.86
O=C(N/C=N/O)C1=NOC(CNc2ncc(C(F)(F)F)cc2Cl)C1 (centres unmarked)	-3.94
Cc1cc(C)c2cc(C(=O)N(C)C3CCN(C)CC3)[nH]c2c1	14.6
O=C(c1ccc(-c2nnc(Nc3ccccc3)c3ccccc23)cc1)N1C[C@H]2C[C@H](C1)c1cccc(=O)n1C2	8.88
CCN(CC)S(=O)(=O)c1ccc(N2CCN(CCO)CC2)nc1	6.5
CCOc1ccc(N/C(C)=C/C(=O)c2ccc(C)o2)cc1	10.1
CNC(=O)c1cc(C(=O)c2c(Cl)cccc2Cl)c[nH]1	7.41
O=c1c(Cc2ccc(Cl)cc2Cl)c(O)ccn1Cc1ccc(Cl)cc1	9.41
NC1=NC[C@H](Cc2ccc(O)cc2)N1CCC12CC3CC(CC(C3)C1)C2	18
O=C(CSc1ccc2nnc(-c3ccccn3)n2n1)Nc1ccc2c(c1)OCCO2	-2.96
CCOc1ccc(NC(=O)N2CCN(S(C)(=O)=O)CC2)cc1	10.2
O=C(O)c1cccc(N2C(=O)C3C4C=CC(C4=C(c4ccccc4)c4ccccc4)C3C2=O)c1 (centres unmarked)	9.57

SMILES	hERG current change (%, negative = inhibition) at 1uM [%]
CCO[C@H]1OC(C(=O)NCc2ccccc2)=C[C@@H](c2coc3ccccc3c2=O)[C@@H]1CCCO	0.438
COc1cc(S(=O)(=O)NCc2ccncc2)c(OC)cc1C	6.43
CC(Cc1ccsc1)NCc1cn[nH]c1-c1ccc(F)cc1F (centres unmarked)	-9.31
O=C(CN1C(=O)c2ccccc2S1(=O)=O)Nc1ncccn1	1.63
Cc1nn(C)cc1S(=O)(=O)Nc1ccc(C(F)(F)F)cc1	19.7
Cc1sc2nc(SCC(=O)NCc3ccco3)[nH]c(=O)c2c1C	17.4
COc1cc(/C=C2\OC(=O)c3c(OC)cccc32)ccc1O	14.9
COC(=O)c1ccc(-c2noc(CN(Cc3nccn3C)C(C)C)n2)cc1	5.78
COC(=O)CSc1ncnc2c1cnn2Cc1ccccc1	7.3
Cc1cc(C2CCCCC2)n(O)c(=O)c1.NCCO	11.1
S=C(Nc1ccccc1)N1N=C(c2cccs2)CC1c1cccs1 (centres unmarked)	21.7
Cc1[nH][nH]c(=O)c1C(c1ccc(F)cc1)c1c(C)[nH][nH]c1=O	8.58
CCOc1ccc(NC(=O)CN(c2ccc([N+](=O)[O-])cc2)S(=O)(=O)c2ccccc2)cc1	4
O=C(NC1CCN(S(=O)(=O)c2ccc(Cl)cc2)CC1)c1cccnc1	15.9
O=C(NCc1cccnc1)C12CC3CC(CC(C3)C1)C2	8.7
Cn1c(CCN2CCN(c3ccccn3)CC2)nc2cc(NS(=O)(=O)c3ccc(Cl)cc3)ccc21	-69.2
COc1ccc(CCNC(=O)COC(=O)/C=C/c2ccc(OCC#N)c(OC)c2)cc1OC	3.42
CCCC(C(=O)O)N1C(=O)/C(=C/c2cccn2C)SC1=S (centres unmarked)	15.3
Cc1ccc(NC(=O)Cc2nc(CSc3nnc(-c4ccc5c(c4)OCO5)o3)cs2)cc1	4.54
CC1Cc2ccccc2N1NC(=O)c1ccc(Cl)c(S(N)(=O)=O)c1 (centres unmarked)	6.92
Cc1cc(NC(=O)Cn2nnc(-c3ccccc3N)n2)no1	6.84
O=C1NC(c2ccncc2)Nc2sc3c(c21)CCCC3 (centres unmarked)	13.8
CCc1ccc(NC(=O)c2cccc(C(=O)Nc3ccc(CC)cc3)n2)cc1	7.07

SMILES	hERG current change (%, negative = inhibition) at 1uM [%]
Cc1nnc(SCC(=O)c2cc(C)n(-c3c(C)n(C)n(-c4ccccc4)c3=O)c2C)s1	9.06
COc1cccc(CN2CCN(Cc3ccc4c(c3)OCCO4)CC2CCO)c1 (centres unmarked)	7.12
CCc1ccc(C(C)NC(=O)/C=C/c2ccc(Br)cc2)cc1 (centres unmarked)	-17.3
CCOC(=O)C1(CC)CC(CSc2nc3ccccc3[nH]2)OC1=O.Cl (centres unmarked)	11.7
CCOc1ccc2[nH]cc(C(=O)NCc3ccc(F)cc3)c(=O)c2c1	15.6
O=C(COC(=O)c1cccc2ccccc12)Nc1cccnc1Cl	3.23
CC(=O)c1c(C)n(CCO)c2ccc(O)cc12	-1.68
NS(=O)(=O)c1ccc(Cc2ncc(C(F)(F)F)cc2Cl)s1	10.8
CC1(C(=O)NC2CCCCC2)CCC(=O)N1Cc1cccs1 (centres unmarked)	5.72
CCCCn1c(CCC(=O)O)nc2c1c(=O)[nH]c(=O)n2CCC	-4.72
COCCNC(=O)C1c2cc(OC)c(OC)cc2C(=O)N(C)C1c1cccnc1 (centres unmarked)	5.43
CC[N+](CC)(CC)CCCCCCCCCC[N+](CC)(CC)CC.[Br-]	10.3
CSc1nnc(CNS(=O)(=O)c2ccc(Br)cc2)n1C	8.2
CN1CCN(C(=S)Nc2ccc(Cl)c(Cl)c2)CC1	-4.89
CC(Oc1ccc(Cl)cc1Cl)C(=O)Nc1cccnc1 (centres unmarked)	1.91
COC(=O)c1cc(Br)c(=O)n(CCC2=CCCCC2)c1	4.57
CC(C)(C)NC(=O)c1ccc2c(c1)N(CC(=O)NC1CCCC1)C(=O)C(C)(C)O2	12.6
Cc1ccc(S(=O)(=O)CC(c2ccccc2)N2CCOCC2)cc1 (centres unmarked)	6.98
CCCN(C(=O)c1cc(CC)c(C)s1)c1c(N)n(Cc2ccccc2)c(=O)[nH]c1=O	16.1
Cc1c(Cc2ccccc2)sc(NC(=O)Cc2ccccc2)c1C(N)=O	13.5
CC(C)c1cc(C(=O)NC2CCCc3c2cnn3-c2ccccc2F)no1 (centres unmarked)	3.72
CCOC(=O)C1CCN(C(=O)CN(c2ccc(OC)cc2)S(=O)(=O)c2c(C)nn(C)c2C)CC1	13.1
CN1CCN(S(=O)(=O)c2ccc(N(C)CC(=O)Nc3ccc(F)cc3)nc2)CC1	8.96

SMILES	hERG current change (%, negative = inhibition) at 1uM [%]
CN1C(=O)C(CC(=O)O)S/C1=N\N=C\c1ccc(O)cc1O (centres unmarked)	3.52
CCc1ccc(NC(=O)C/C(C)=N/NC(=O)COc2ccc(C)cc2Br)cc1	-5.13
CN1CCN(CC(O)COC(c2ccc(Cl)cc2)c2ccc(Cl)cc2)CC1.Cl (centres unmarked)	-47.8
CCOC(=O)N1CCN(C(=O)c2cccc(-n3c(=S)[nH]c4cc(Cl)ccc4c3=O)c2)CC1	4.67
Cc1cccc(-n2c(-c3csc(C)c3C)n[nH]c2=S)c1	10.8
COc1ccc(NC(=O)COC(=O)CNC(=O)c2cccs2)cc1Cl	2.52
Cl.OC(c1ccccc1)(c1ccccc1)C1CN2CCC1CC2 (centres unmarked)	-1.7
CCOc1cc(C(=O)OCC(=O)Nc2cc(C)on2)cc(OCC)c1OCC	6.73
O=C(Nc1ccccc1)N1CCC(c2nc(-c3ccc(S(=O)(=O)N4CCOCC4)cc3)no2)CC1	-4.93
CCn1c(=O)c(=O)[nH]c2cc(C(=O)N(C)Cc3ccc(OC)c(F)c3)ccc21	12.3
OC(CN1CCN(c2ccccc2F)CC1)c1ccc(F)cc1 (centres unmarked)	0.865
Cc1cccc(C(=O)NC(=S)NNC(=O)c2cccs2)c1	10.4
CCCN(CCC)S(=O)(=O)c1ccc(C(=O)N2CCCc3ccccc32)cc1	8.53
O=C(NC1CC1)c1cc2cc3ccccc3nc2s1	5.21
O=C(Nc1ccc(Cl)cc1)c1ccncc1	11.3
CCc1cc(C(=O)COc2ccc(F)cc2)c(O)cc1O	5.76
CC1(C)CN(c2ccccc2)N(Cc2ccc(F)cc2)C1=O	-4.34
Cc1cccc(OCCCCCNCCO)c1	8.25
CCOC(=O)Nc1nn(-c2ccc(C)cc2)c(=O)c(C#N)c1C	-0.101
Cc1ccccc1Nc1nc(N)nc(CSc2nc3ccccc3c(=O)n2C)n1	9.44
